In all, about 33,000 sequences were measured (“E-score (-0.5 to 0.5)”: median about -0.04, highest 2% from about 0.36 on). This is one part of the list.
These sequences were tested against T1, Hmlalpha2 (UniProt P0CY09) (assay: PBM E-score (8-mer binding enrichment) (E-score (-0.5 to 0.5)); higher = stronger / more preferred TF binding; most listed sequences are background and not binding sites). Settings: protein concentration: 200 nM; construct: GST-full length.
T1 sequence: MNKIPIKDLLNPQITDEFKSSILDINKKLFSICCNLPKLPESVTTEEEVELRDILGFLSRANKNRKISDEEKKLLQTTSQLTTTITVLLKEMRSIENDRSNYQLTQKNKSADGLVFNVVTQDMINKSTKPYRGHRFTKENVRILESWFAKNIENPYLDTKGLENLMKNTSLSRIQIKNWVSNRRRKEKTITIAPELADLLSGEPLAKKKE
In short: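 PURExpress in vitro transcription/translation supplied GST-tagged yeast transcription factors, either full-length or DNA-binding domain. Applied at about 100-200 nM to universal all-10-mer Agilent arrays double-stranded by primer extension, the bound protein was detected with fluorescent anti-GST. E-scores, modified Wilcoxon-Mann-Whitney statistics, were given by the Universal PBM Analysis Suite to ungapped eight-base words pooled with their reverse complements after masliner normalisation.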
In the case of CGATTGTA, the “PBM E-score” value is reported as 0.241. In the case of AACACACG, the “PBM E-score” value is reported as 0.319. With TGCACCAA the “PBM E-score” value was -0.186. For AACGTTGA, the “PBM E-score” value was 0.149. CATACACC was tested, and the “PBM E-score” value was -0.076. AGGCTGCC was tested, and the “PBM E-score” value was -0.401. With TATGTTCA the “PBM E-score” value was 0.316. In the case of CTCTCCAC, the “PBM E-score” value is reported as -0.404. AATCCAAC was tested, and the “PBM E-score” value was -0.0243. GCGAATGA was tested, and the “PBM E-score” value was 0.0849. ACGTTTCT was tested, and the “PBM E-score” value was 0.00591. For AGGTGGTA, the “PBM E-score” value was -0.0201. In the case of CACCTCTG, the “PBM E-score” value is reported as -0.156. With ACGACCCT the “PBM E-score” value was -0.115. CCTATTAC was tested, and the “PBM E-score” value was 0.254. CGCGATCA was tested, and the “PBM E-score” value was 0.106. In the case of AAGCAAAG, the “PBM E-score” value is reported as -0.00833. For CTGTGTCA, the “PBM E-score” value was 0.0766. With AGATGCCC the “PBM E-score” value was -0.186. With GCAGTAGA the “PBM E-score” value was -0.19. For CGCTTATA, the “PBM E-score” value was 0.00449. With CGACGAAC the “PBM E-score” value was 0.0732. For ACTTTCTG, the “PBM E-score” value was -0.0407. For CGTCTTTC, the “PBM E-score” value was -0.222. For AGACTCCT, the “PBM E-score” value was -0.234. For CGCCGGCC, the “PBM E-score” value was -0.214. For ACGCTTCG, the “PBM E-score” value was 0.0459. With TCACGAAA the “PBM E-score” value was 0.1. With ATCTAGGC the “PBM E-score” value was -0.217. In the case of CACTCCAC, the “PBM E-score” value is reported as -0.141. With AGACTCCC the “PBM E-score” value was -0.456. For TGCCTCAA, the “PBM E-score” value was -0.176. In the case of ACCGCGGC, the “PBM E-score” value is reported as -0.263. In the case of ACTACCGC, the “PBM E-score” value is reported as -0.0698. With CAACCTGC the “PBM E-score” value was 0.0166. With AAGGCTCG the “PBM E-score” value was -0.286. With CCCTTCGG the “PBM E-score” value was -0.217. For CCGTGGCC, the “PBM E-score” value was -0.367. With CAGGACCA the “PBM E-score” value was -0.233. ATCCATGA was tested, and the “PBM E-score” value was -0.265. CTGAAAAG was tested, and the “PBM E-score” value was -0.0818. For GAACGTTC, the “PBM E-score” value was 0.0114. In the case of AGCGATTA, the “PBM E-score” value is reported as -0.0258. With ATTGCCAC the “PBM E-score” value was 0.0557. For GAGCGTAC, the “PBM E-score” value was -0.102. For AGCCGAAG, the “PBM E-score” value was -0.115. CTGAGCAA was tested, and the “PBM E-score” value was -0.0846. With CCTTGCAC the “PBM E-score” value was -0.0079. With GACGTCTC the “PBM E-score” value was -0.101. In the case of GAGTGAAA, the “PBM E-score” value is reported as 0.0244. ATCTAGGG was tested, and the “PBM E-score” value was -0.193. In the case of TCCAACCA, the “PBM E-score” value is reported as -0.124. For ATCGTGCC, the “PBM E-score” value was -0.0545. With AGGCTCCC the “PBM E-score” value was -0.339. With CAGATCTC the “PBM E-score” value was -0.232. With ACCAAAAA the “PBM E-score” value was 0.124. In the case of AACCAAAC, the “PBM E-score” value is reported as -0.0507. In the case of AGCACACC, the “PBM E-score” value is reported as -0.245. In the case of ATTTAGGC, the “PBM E-score” value is reported as 0.0493. CCTACAGA was tested, and the “PBM E-score” value was -0.108. In the case of ATCCTAGG, the “PBM E-score” value is reported as -0.289. ACCCCGGT was tested, and the “PBM E-score” value was -0.362. With CTGGAGCC the “PBM E-score” value was -0.238. For AATGGGGT, the “PBM E-score” value was 0.106. GGTTAAAC was tested, and the “PBM E-score” value was 0.156. With CGTAGTTC the “PBM E-score” value was 0.0471. GCCGAGGC was tested, and the “PBM E-score” value was -0.0332. With ATTTGGGC the “PBM E-score” value was -0.101. For GCAAACCA, the “PBM E-score” value was -0.0632. For CTTAAGGC, the “PBM E-score” value was -0.229. In the case of ATCGCTTC, the “PBM E-score” value is reported as 0.00567. With AGCGAGAT the “PBM E-score” value was -0.217. With CGAGCACG the “PBM E-score” value was -0.161. CTGCAGGC was tested, and the “PBM E-score” value was -0.285. For CTATGCCA, the “PBM E-score” value was -0.0644. With GCTAAACA the “PBM E-score” value was 0.213. With GGTTATAA the “PBM E-score” value was 0.0757. For CAACCACG, the “PBM E-score” value was 0.111. In the case of AACCAAGG, the “PBM E-score” value is reported as -0.0859. With GCCTCAAA the “PBM E-score” value was -0.207. With AAAGGCGT the “PBM E-score” value was -0.14. With CGAGGATA the “PBM E-score” value was -0.219. For ATCGTGGA, the “PBM E-score” value was -0.102. With AAGCCTAT the “PBM E-score” value was 0.0328. For GAAGCGAC, the “PBM E-score” value was -0.125. For CAGGCAGA, the “PBM E-score” value was -0.164. GTAGCTAA was tested, and the “PBM E-score” value was 0.0867. CTAGCGGC was tested, and the “PBM E-score” value was -0.356. In the case of AACTGGTC, the “PBM E-score” value is reported as -0.12. AGTAGGCC was tested, and the “PBM E-score” value was -0.0795. For GCCGCGTA, the “PBM E-score” value was 0.341. With AGAGGGTG the “PBM E-score” value was -0.234. In the case of AGCCTTCG, the “PBM E-score” value is reported as -0.267. For CATGCTCA, the “PBM E-score” value was 0.121. For CATGCCTC, the “PBM E-score” value was 0.191. With CTAAGTGC the “PBM E-score” value was -0.18. With CCATAGGG the “PBM E-score” value was -0.243. For AGTCGTCG, the “PBM E-score” value was -0.249. AGATGATC was tested, and the “PBM E-score” value was -0.0746. For GTCTGCGA, the “PBM E-score” value was -0.103. In the case of CGTCATTC, the “PBM E-score” value is reported as 0.0489. For TGCAAGCA, the “PBM E-score” value was 0.0392. With ACCAGCTA the “PBM E-score” value was 0.0143. For ATGCGCAA, the “PBM E-score” value was -0.182. With ATTATCCC the “PBM E-score” value was 0.0955. With CGTGAAAG the “PBM E-score” value was 0.0792. In the case of ACTGCCCA, the “PBM E-score” value is reported as -0.0607. In the case of ATTTGGCC, the “PBM E-score” value is reported as 0.00302. In the case of CAGCTCAA, the “PBM E-score” value is reported as -0.182. In the case of AACGCCTT, the “PBM E-score” value is reported as -0.0856. ATCATAAT was tested, and the “PBM E-score” value was 0.0917. CGGCGTTA was tested, and the “PBM E-score” value was -0.0148. In the case of CTCGGTTC, the “PBM E-score” value is reported as -0.185. AGAGTGCT was tested, and the “PBM E-score” value was 0.0169. With AAGTATTC the “PBM E-score” value was 0.0867. With ACAGCTCA the “PBM E-score” value was -0.122. With TACGTAGA the “PBM E-score” value was 0.332. In the case of ATAGACAG, the “PBM E-score” value is reported as 0.0508. CATTCCGC was tested, and the “PBM E-score” value was -0.204. In the case of GGATATAC, the “PBM E-score” value is reported as 0.0826. With AAATCACC the “PBM E-score” value was 0.0614. For GTCAAAGA, the “PBM E-score” value was 0.172. For GCACAGGA, the “PBM E-score” value was -0.116. With AATCCGCT the “PBM E-score” value was -0.108. CTTTCTGA was tested, and the “PBM E-score” value was 0.0509. With AACTTGAA the “PBM E-score” value was 0.0203. For CGGCGTGA, the “PBM E-score” value was -0.192. In the case of AGGGTGCA, the “PBM E-score” value is reported as -0.142. With CCTACCAA the “PBM E-score” value was -0.00196. For CCCTGCGA, the “PBM E-score” value was -0.155. CGTCGCAA was tested, and the “PBM E-score” value was -0.0903. For CGTCGGCA, the “PBM E-score” value was -0.13. CCGGTGCA was tested, and the “PBM E-score” value was -0.247. For AGCTGTAA, the “PBM E-score” value was 0.153. CTCATATC was tested, and the “PBM E-score” value was -0.331. In the case of CCTTTGAG, the “PBM E-score” value is reported as -0.122. With CCGGCAGG the “PBM E-score” value was -0.284. With TATGGTCA the “PBM E-score” value was -0.104. In the case of ATTCACGC, the “PBM E-score” value is reported as 0.102. ATGATGCC was tested, and the “PBM E-score” value was -0.141. For GACTACGA, the “PBM E-score” value was -0.164. For AACCGGGC, the “PBM E-score” value was -0.337. For GATGTACC, the “PBM E-score” value was 0.135. GAAGCCCA was tested, and the “PBM E-score” value was -0.291. In the case of AGTTATGG, the “PBM E-score” value is reported as -0.00247. For CCCTTCAG, the “PBM E-score” value was -0.197. For ATCTCAGA, the “PBM E-score” value was -0.191. For CACCGATA, the “PBM E-score” value was 0.0159. For TAAGTAGA, the “PBM E-score” value was 0.122. With TATAAGGA the “PBM E-score” value was 0.078. With CACCTAAG the “PBM E-score” value was 0.172. For GATAGACC, the “PBM E-score” value was -0.00159. CACCAGGC was tested, and the “PBM E-score” value was -0.137. For ATAAAAAC, the “PBM E-score” value was 0.325. With CCTCCTAA the “PBM E-score” value was -0.0883. In the case of CATAAAGG, the “PBM E-score” value is reported as -0.0516. CAGTTTGC was tested, and the “PBM E-score” value was -0.118. For CAGTCTCC, the “PBM E-score” value was -0.127. With ATTGAGCC the “PBM E-score” value was -0.0416. ACTGGACC was tested, and the “PBM E-score” value was -0.159. For GAATGTGC, the “PBM E-score” value was -0.0692. ATCATGAA was tested, and the “PBM E-score” value was -0.0623. In the case of CAGCGCAA, the “PBM E-score” value is reported as -0.218. For AAGACATG, the “PBM E-score” value was 0.299. In the case of GGCCCAAA, the “PBM E-score” value is reported as -0.319. In the case of CGGGCCAG, the “PBM E-score” value is reported as -0.275. CTTGGGGC was tested, and the “PBM E-score” value was -0.338. For CGTAAGCA, the “PBM E-score” value was -0.0655. With CAGTCCAG the “PBM E-score” value was -0.165. With AGATAAAC the “PBM E-score” value was 0.0963. AGCCTCTC was tested, and the “PBM E-score” value was -0.225. With CCACACCG the “PBM E-score” value was -0.0872.
